Paper PMC6073935
Results are given in words; binding and its absence hold for the method and conditions named. Binding seen in cells or lysates may run through a third protein. Some binding calls cover weakened binding; strength is not graded here. Sequences can lack the tags named with a protein.

Chains of the proteins cited; added tags and fusions are not shown. Lines headed by an entry give the natural chain unless they say otherwise; changes in a name come on top.
UniProt P35670: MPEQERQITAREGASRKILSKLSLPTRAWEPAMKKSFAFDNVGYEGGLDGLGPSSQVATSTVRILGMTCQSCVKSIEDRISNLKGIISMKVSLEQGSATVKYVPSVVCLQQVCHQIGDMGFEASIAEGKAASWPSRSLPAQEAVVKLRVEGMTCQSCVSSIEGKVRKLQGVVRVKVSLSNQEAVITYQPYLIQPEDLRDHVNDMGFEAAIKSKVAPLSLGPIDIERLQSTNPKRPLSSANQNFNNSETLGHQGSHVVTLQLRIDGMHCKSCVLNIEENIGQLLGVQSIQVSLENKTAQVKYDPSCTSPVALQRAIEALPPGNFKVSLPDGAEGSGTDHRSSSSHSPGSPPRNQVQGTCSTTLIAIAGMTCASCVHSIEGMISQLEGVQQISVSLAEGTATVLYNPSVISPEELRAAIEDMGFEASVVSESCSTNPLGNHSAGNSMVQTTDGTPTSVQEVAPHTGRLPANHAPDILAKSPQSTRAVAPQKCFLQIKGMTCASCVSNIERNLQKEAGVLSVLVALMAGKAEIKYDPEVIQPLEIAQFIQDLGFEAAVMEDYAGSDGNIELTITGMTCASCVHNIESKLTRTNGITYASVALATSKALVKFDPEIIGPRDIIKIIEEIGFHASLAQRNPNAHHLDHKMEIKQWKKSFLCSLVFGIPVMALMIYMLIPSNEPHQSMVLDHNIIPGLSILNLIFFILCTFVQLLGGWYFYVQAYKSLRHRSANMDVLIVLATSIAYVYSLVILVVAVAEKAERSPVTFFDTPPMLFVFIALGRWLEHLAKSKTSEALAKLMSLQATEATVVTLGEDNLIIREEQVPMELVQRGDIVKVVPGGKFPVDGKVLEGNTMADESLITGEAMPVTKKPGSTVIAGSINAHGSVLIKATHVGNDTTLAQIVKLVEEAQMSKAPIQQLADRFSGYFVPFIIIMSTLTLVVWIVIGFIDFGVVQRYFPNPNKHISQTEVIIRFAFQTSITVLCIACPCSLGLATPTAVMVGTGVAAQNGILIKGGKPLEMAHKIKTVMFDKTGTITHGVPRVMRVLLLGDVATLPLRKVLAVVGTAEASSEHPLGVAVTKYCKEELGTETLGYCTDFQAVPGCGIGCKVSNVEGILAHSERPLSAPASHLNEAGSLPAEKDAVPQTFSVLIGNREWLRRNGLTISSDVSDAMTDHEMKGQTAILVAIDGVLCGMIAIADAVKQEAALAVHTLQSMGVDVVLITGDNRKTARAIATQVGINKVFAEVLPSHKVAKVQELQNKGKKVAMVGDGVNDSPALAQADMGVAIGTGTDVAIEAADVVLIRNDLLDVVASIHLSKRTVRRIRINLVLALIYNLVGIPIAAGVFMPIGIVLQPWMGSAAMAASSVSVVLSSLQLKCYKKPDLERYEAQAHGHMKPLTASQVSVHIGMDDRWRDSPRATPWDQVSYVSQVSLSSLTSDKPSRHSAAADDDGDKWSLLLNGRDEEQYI

Columns and labels:
GFP-tagged ATP7B-H1069Q [1] = target: GFP-tagged ATP7B-H1069Q (UniProt P35670); test: FRET or BRET; FLIM-FRET, donor GFP on ATP7B forms, acceptor TAMRA on the peptide; COS7 cells incubated with 12.5 μM peptide, fixed with 2% paraformaldehyde 48 h post transfection; only the binder purified
GFP-tagged ATP7B [2] = target: GFP-tagged ATP7B (UniProt P35670); test: as above
GFP-tagged ATP7B-H1069Q [3] = target: GFP-tagged ATP7B-H1069Q (UniProt P35670); test: co-IP; COS7 cells transfected with GFP-tagged ATP7B forms, incubated with 12.5 μM TAMRA-tagged peptide, lysed 48 h post-transfection, immunoprecipitated with anti-GFP antibody; peptide detected in the precipitate by nanoLC-ESI-Q-Orbitrap SIM-MS at m/z 560.69 ± 0.6 (5+) and MS/MS; only the binder purified
GFP-tagged ATP7B [4] = target: GFP-tagged ATP7B (UniProt P35670); test: as above

binding (GFP-tagged ATP7B-H1069Q [1])	binding (GFP-tagged ATP7B [2])	binding (GFP-tagged ATP7B-H1069Q [3])	binding (GFP-tagged ATP7B [4])	Binder
no binding (tested: 12.5 μM)	no binding (tested: 12.5 μM)	no binding (tested: 12.5 μM)	no binding (tested: 12.5 μM)	KVKLEEPSFHKVDLNVSFRD (5-TAMRA tagged) [TAMRA-tagged control peptide 1 (inverted sequence of Pept 73–92)]
no binding (tested: 12.5 μM)	no binding (tested: 12.5 μM)	no binding (tested: 12.5 μM)	no binding (tested: 12.5 μM)	DLPLKVNVEDKFHRSFVESK (5-TAMRA tagged) [TAMRA-tagged control peptide 2 (scrambled sequence of Pept 73–92)]
–	–	binds	binds	DRFSVNLDVKHFSPEELKVK (5-TAMRA tagged) [TAMRA-tagged Pept 73–92 (residues 73–92 of the α-crystallin domain of αB-crystallin, CRYAB)]
